Assay results: a compilation of properties of binary mixtures (doi:10.1080/00319104.2013.782546)
The densities may have been worked out from excess volumes.

Assay: xn = mol fraction of the nth substance listed
Details: 283.15 K, 101 kPa

CCc1ccccc1 + CC[n+]1ccn(C)c1.O=S(=O)([N-]S(=O)(=O)C(F)(F)F)C(F)(F)F
mass density (x1 = 1): 875.7 kg/m3

Cc1cccc(C)c1 + CC[n+]1ccn(C)c1.O=S(=O)([N-]S(=O)(=O)C(F)(F)F)C(F)(F)F
mass density (x1 = 1): 872.7 kg/m3

c1ccccc1 + CCOS(=O)(=O)[O-].CC[n+]1cccc(C)c1
mass density (x1 = 1): 889.6 kg/m3

Cc1ccccc1 + CCOS(=O)(=O)[O-].CC[n+]1cccc(C)c1
mass density (x1 = 1): 876.1 kg/m3

CCC[n+]1cccc(C)c1.O=S(=O)([N-]S(=O)(=O)C(F)(F)F)C(F)(F)F + Cc1ccc(C)cc1
mass density (x2 = 0): 1461.7 kg/m3 | mass density (x2 = 0.1063): 1435.7 kg/m3 | mass density (x2 = 0.2048): 1408.1 kg/m3 | mass density (x2 = 0.3125): 1373.3 kg/m3 | mass density (x2 = 0.4148): 1334.2 kg/m3 | mass density (x2 = 0.5037): 1294.4 kg/m3 | mass density (x2 = 0.6094): 1237.9 kg/m3 | mass density (x2 = 0.6229): 1229.8 kg/m3 | mass density (x2 = 0.6269): 1227.7 kg/m3

CCOS(=O)(=O)[O-].CC[n+]1cccc(C)c1 + c1ccccc1
mass density (x2 = 0): 1230.7 kg/m3 | mass density (x2 = 0.0483): 1224.3 kg/m3 | mass density (x2 = 0.1029): 1217.1 kg/m3 | mass density (x2 = 0.1981): 1203.4 kg/m3 | mass density (x2 = 0.3038): 1184.4 kg/m3 | mass density (x2 = 0.4028): 1163.9 kg/m3 | mass density (x2 = 0.4979): 1140.5 kg/m3 | mass density (x2 = 0.6009): 1111.4 kg/m3

CC[n+]1ccn(C)c1.O=S(=O)([N-]S(=O)(=O)C(F)(F)F)C(F)(F)F + c1ccccc1
mass density (x2 = 0.045): 1524.5 kg/m3 | mass density (x2 = 0.0962): 1512.9 kg/m3 | mass density (x2 = 0.1942): 1487.8 kg/m3 | mass density (x2 = 0.4104): 1419.3 kg/m3 | mass density (x2 = 0.5024): 1380.9 kg/m3 | mass density (x2 = 0.6084): 1325 kg/m3 | mass density (x2 = 0.6993): 1262.7 kg/m3 | mass density (x2 = 0.7329): 1235.9 kg/m3

CCOS(=O)(=O)[O-].CC[n+]1cccc(C)c1 + CCc1ccccc1
mass density (x2 = 0.1241): 1204.8 kg/m3 | mass density (x2 = 0.146): 1199.8 kg/m3 | mass density (x2 = 0.1639): 1196.4 kg/m3 | mass density (x2 = 0.1732): 1194.9 kg/m3 | mass density (x2 = 0.1934): 1190.4 kg/m3

CCCCCC[n+]1ccn(C)c1.O=S(=O)([N-]S(=O)(=O)C(F)(F)F)C(F)(F)F + Cc1ccc(C)cc1
mass density (x2 = 0.0523): 1376.2 kg/m3 | mass density (x2 = 0.1037): 1365.7 kg/m3 | mass density (x2 = 0.2121): 1341.5 kg/m3 | mass density (x2 = 0.3063): 1317.4 kg/m3 | mass density (x2 = 0.4102): 1285.3 kg/m3 | mass density (x2 = 0.6086): 1203.5 kg/m3 | mass density (x2 = 0.6619): 1175.7 kg/m3 | mass density (x2 = 0.702): 1152 kg/m3

Cc1ccccc1C + CCC[n+]1cccc(C)c1.O=S(=O)([N-]S(=O)(=O)C(F)(F)F)C(F)(F)F
mass density (x1 = 1): 888.1 kg/m3

CCOS(=O)(=O)[O-].CC[n+]1cccc(C)c1 + Cc1ccccc1C
mass density (x2 = 0): 1230.7 kg/m3 | mass density (x2 = 0.0495): 1222.1 kg/m3 | mass density (x2 = 0.1048): 1212.4 kg/m3 | mass density (x2 = 0.1561): 1201.7 kg/m3 | mass density (x2 = 0.2007): 1192.4 kg/m3 | mass density (x2 = 0.232): 1186.9 kg/m3 | mass density (x2 = 0.2524): 1182.4 kg/m3

CCC[n+]1cccc(C)c1.O=S(=O)([N-]S(=O)(=O)C(F)(F)F)C(F)(F)F + Cc1ccccc1C
mass density (x2 = 0): 1461.7 kg/m3 | mass density (x2 = 0.0479): 1450.4 kg/m3 | mass density (x2 = 0.1039): 1435.9 kg/m3 | mass density (x2 = 0.2077): 1407.1 kg/m3 | mass density (x2 = 0.4059): 1341.7 kg/m3 | mass density (x2 = 0.4992): 1303 kg/m3 | mass density (x2 = 0.588): 1258.5 kg/m3 | mass density (x2 = 0.6238): 1238 kg/m3

CC[n+]1cccc(C)c1.O=S(=O)([N-]S(=O)(=O)C(F)(F)F)C(F)(F)F + c1ccccc1
mass density (x2 = 0): 1503.1 kg/m3 | mass density (x2 = 0.0451): 1494.4 kg/m3 | mass density (x2 = 0.0992): 1483.4 kg/m3 | mass density (x2 = 0.2018): 1459.8 kg/m3 | mass density (x2 = 0.2845): 1438.1 kg/m3 | mass density (x2 = 0.3887): 1405.9 kg/m3 | mass density (x2 = 0.498): 1364.5 kg/m3 | mass density (x2 = 0.5447): 1343.5 kg/m3 | mass density (x2 = 0.6413): 1291.9 kg/m3 | mass density (x2 = 0.7394): 1224.4 kg/m3 | mass density (x2 = 0.7983): 1173.5 kg/m3

c1ccccc1 + CCC[n+]1cccc(C)c1.O=S(=O)([N-]S(=O)(=O)C(F)(F)F)C(F)(F)F
mass density (x1 = 1): 889.6 kg/m3

Cc1ccccc1C + CCCCCC[n+]1ccn(C)c1.O=S(=O)([N-]S(=O)(=O)C(F)(F)F)C(F)(F)F
mass density (x1 = 1): 888.1 kg/m3

CCCCCC[n+]1ccn(C)c1.O=S(=O)([N-]S(=O)(=O)C(F)(F)F)C(F)(F)F + Cc1ccccc1C
mass density (x2 = 0): 1385.9 kg/m3 | mass density (x2 = 0.1029): 1367.6 kg/m3 | mass density (x2 = 0.217): 1342.9 kg/m3 | mass density (x2 = 0.299): 1322.6 kg/m3 | mass density (x2 = 0.3413): 1310.9 kg/m3 | mass density (x2 = 0.7506): 1132.3 kg/m3

Cc1ccccc1 + CC[n+]1cccc(C)c1.O=S(=O)([N-]S(=O)(=O)C(F)(F)F)C(F)(F)F
mass density (x1 = 1): 876.1 kg/m3

CCCCCC[n+]1ccn(C)c1.O=S(=O)([N-]S(=O)(=O)C(F)(F)F)C(F)(F)F + Cc1ccccc1
mass density (x2 = 0): 1385.9 kg/m3 | mass density (x2 = 0.0492): 1378.1 kg/m3 | mass density (x2 = 0.2018): 1351 kg/m3 | mass density (x2 = 0.4026): 1300.8 kg/m3 | mass density (x2 = 0.4983): 1269.4 kg/m3 | mass density (x2 = 0.811): 1095.9 kg/m3

Cc1ccc(C)cc1 + CC[n+]1ccn(C)c1.O=S(=O)([N-]S(=O)(=O)C(F)(F)F)C(F)(F)F
mass density (x1 = 1): 869.6 kg/m3

CCc1ccccc1 + CCCCCC[n+]1ccn(C)c1.O=S(=O)([N-]S(=O)(=O)C(F)(F)F)C(F)(F)F
mass density (x1 = 1): 875.7 kg/m3

Cc1ccc(C)cc1 + CCCCCC[n+]1ccn(C)c1.O=S(=O)([N-]S(=O)(=O)C(F)(F)F)C(F)(F)F
mass density (x1 = 1): 869.6 kg/m3

CC[n+]1ccn(C)c1.O=S(=O)([N-]S(=O)(=O)C(F)(F)F)C(F)(F)F + Cc1ccc(C)cc1
mass density (x2 = 0.0987): 1503.3 kg/m3 | mass density (x2 = 0.1974): 1469 kg/m3 | mass density (x2 = 0.2929): 1431.2 kg/m3 | mass density (x2 = 0.4203): 1372.7 kg/m3 | mass density (x2 = 0.4663): 1349.2 kg/m3

CCc1ccccc1 + CCOS(=O)(=O)[O-].CC[n+]1cccc(C)c1
mass density (x1 = 1): 875.7 kg/m3

CCOS(=O)(=O)[O-].CC[n+]1cccc(C)c1 + Cc1ccccc1
mass density (x2 = 0): 1230.7 kg/m3 | mass density (x2 = 0.0517): 1222.6 kg/m3 | mass density (x2 = 0.1036): 1214.7 kg/m3 | mass density (x2 = 0.2023): 1195.3 kg/m3 | mass density (x2 = 0.2751): 1180.3 kg/m3 | mass density (x2 = 0.3501): 1163.9 kg/m3 | mass density (x2 = 0.3661): 1160.3 kg/m3

Cc1ccccc1C + CCOS(=O)(=O)[O-].CC[n+]1cccc(C)c1
mass density (x1 = 1): 888.1 kg/m3

Cc1cccc(C)c1 + CCC[n+]1cccc(C)c1.O=S(=O)([N-]S(=O)(=O)C(F)(F)F)C(F)(F)F
mass density (x1 = 1): 872.7 kg/m3
